Laboratory results reported in article PMC4336329 (PLoS ONE, 2015).
Among all 310,000 compounds or so, about 2,200 (0.71%) showed an effect of 50% or more. Effects have a minus sign here. Some of the results follow.

target: human ether-à-go-go-related gene (hERG) potassium channel (human, UniProt Q12809); assay: primary screen, population patch clamp on CHO cells stably expressing hERG
Sequence (Q12809 whole entry, looked up): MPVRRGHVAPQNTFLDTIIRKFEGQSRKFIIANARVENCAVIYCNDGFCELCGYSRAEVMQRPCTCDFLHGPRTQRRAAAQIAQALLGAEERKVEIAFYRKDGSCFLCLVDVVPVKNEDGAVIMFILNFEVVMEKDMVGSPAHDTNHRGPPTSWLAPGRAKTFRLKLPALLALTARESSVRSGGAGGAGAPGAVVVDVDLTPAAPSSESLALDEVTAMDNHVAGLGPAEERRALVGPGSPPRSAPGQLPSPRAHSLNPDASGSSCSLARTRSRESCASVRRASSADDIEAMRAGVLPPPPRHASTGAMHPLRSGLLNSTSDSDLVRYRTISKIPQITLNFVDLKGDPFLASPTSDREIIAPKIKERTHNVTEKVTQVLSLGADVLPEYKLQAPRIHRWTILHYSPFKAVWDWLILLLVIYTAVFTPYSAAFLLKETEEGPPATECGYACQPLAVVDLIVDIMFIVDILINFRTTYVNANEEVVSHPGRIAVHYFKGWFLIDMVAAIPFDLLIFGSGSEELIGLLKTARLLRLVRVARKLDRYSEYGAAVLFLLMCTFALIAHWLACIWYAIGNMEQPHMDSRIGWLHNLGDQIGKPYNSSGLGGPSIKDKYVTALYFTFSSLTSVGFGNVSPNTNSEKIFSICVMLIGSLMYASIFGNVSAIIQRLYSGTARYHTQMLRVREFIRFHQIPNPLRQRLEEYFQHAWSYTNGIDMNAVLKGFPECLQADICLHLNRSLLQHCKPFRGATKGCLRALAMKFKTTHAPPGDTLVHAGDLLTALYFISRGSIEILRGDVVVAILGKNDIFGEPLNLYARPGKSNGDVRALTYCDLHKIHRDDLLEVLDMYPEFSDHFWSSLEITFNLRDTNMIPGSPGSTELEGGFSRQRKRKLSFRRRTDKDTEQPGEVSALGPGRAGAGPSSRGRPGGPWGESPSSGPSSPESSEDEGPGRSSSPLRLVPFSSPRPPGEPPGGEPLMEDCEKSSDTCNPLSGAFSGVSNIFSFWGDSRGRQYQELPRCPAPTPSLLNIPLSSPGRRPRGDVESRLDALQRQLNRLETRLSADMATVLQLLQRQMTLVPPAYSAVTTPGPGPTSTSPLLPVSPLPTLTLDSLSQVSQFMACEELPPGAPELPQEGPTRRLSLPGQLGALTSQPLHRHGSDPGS

SMILES	hERG current change (%, negative = inhibition) at 1uM
COc1cccc(C(C(=O)NC2CCCC2)N(Cc2ccc(C)cc2)C(=O)c2ccco2)c1OC (stereo not shown)	11%
CC(=O)C[C@@H](O)CC(=O)[C@@H]1OC(=O)CC/C=C\Cc2ccccc21	10.3%
Cc1nc(SCC(=O)Nc2nccs2)c(C#N)c(C)c1C	11.2%
CCc1ccc(NC(=O)CC2C(=O)N(c3ccc(C)cc3)C(=O)N2C2CC2)cc1 (stereo not shown)	-1.08%
CCN(c1ccc(C(=O)CN2C(=O)NC3(CCOc4ccccc43)C2=O)cc1)S(C)(=O)=O (stereo not shown)	5.77%
Oc1ccccc1CNCCCNCc1ccccc1O	4.74%
O=C(Cc1ccccc1[N+](=O)[O-])NCCC1=CCCCC1	11%
COc1cc(C2CC(=O)NC(SCC(=O)Nc3ccccc3C)=C2C#N)ccc1O (stereo not shown)	10.2%
Cc1cccc(NC(=O)c2cnccn2)c1	13.5%
CCN(CC)c1ccc(S(=O)(=O)N2CCOCC2)cc1NC(=O)CSc1nncn1C	10.5%
CC(=O)c1c(C(C)=O)c(C)n(C(c2ccccc2)c2ccccc2)c1C	-4.36%
COc1cccc2cc(C(=O)Nc3cccc(C)n3)c(=O)oc12	11.2%
CCOC(=O)c1c(C)[nH]c(C)c1S(=O)(=O)NCc1ccc(OCC)cc1	9.47%
O=C(CN(C(=O)CCC(=O)Nc1ccccn1)c1ccc(F)cc1)NCc1ccc(F)cc1	9.28%
Cc1ccc(C)c(S(=O)(=O)N2CCN(C(=O)CCNS(=O)(=O)c3ccc(C)c(C)c3)CC2)c1	17.7%
CCOC(=O)C1CCN(Cc2cc(=O)oc3c(C)c(C)ccc23)CC1	17.4%
COc1cccc(NC(=O)CN(C)C(=O)CN2C(=O)NC3(CCCC3)C2=O)c1	1.6%
O=C(CN1C(=O)C2C3C=CC(C3)C2C1=O)NCc1ccco1 (stereo not shown)	-0.656%
Cc1ccc(OCC(=O)O/N=C(\N)c2ccncc2)c(C)c1	2.19%
Cc1c(NC2(c3nnnn3-c3ccc(Br)cc3)CCCCC2)c(=O)n(-c2ccccc2)n1C	3.85%
CCC(=O)Nc1c(-c2ccc(C)cc2)nc2ccc(C)cn12	9.83%
Cc1ccc(CN2CCC(Oc3ccc(C(=O)NCc4ccccn4)cc3)CC2)o1	11.8%

SMILES	hERG current change (%, negative = inhibition) at 1uM
COCCn1c(SCC#N)nnc1-c1ccc2c(c1)OCO2	-7.21%
O=C(/C=C/c1cccs1)NC1CCCC1	14.1%
COc1ccc(OCCSc2nnc(C)n2-c2ccccc2)cc1	-12.7%
COCCn1c(C)cc(C(=O)COC(=O)c2ccc(N3CCCC3=O)cc2)c1C	1.56%
Cn1c(SCC(=O)Nc2ccccc2)nnc1-c1ccc2nonc2c1	2.01%
Cc1ccc(CNC(=O)C2CCCN(S(=O)(=O)c3cccnc3)C2)cc1 (stereo not shown)	6.82%
O=C(NCCC1=CCCCC1)C1CCC(CNc2c(N3CCCC3)c(=O)c2=O)CC1 (stereo not shown)	19.6%
CCN(CC)S(=O)(=O)c1ccc(OC(C)C)c(NC(=O)c2c3c(nc4ccccc24)CCN(Cc2ccccc2)C3)c1	1.53%
COc1ccc(C2C(C(=O)N3CCC4(CC3)OCCO4)c3cc(OC)c(OC)cc3C(=O)N2C)cc1 (stereo not shown)	12.6%
Cn1nc(C(F)(F)F)c(C(=O)Nc2ccc(F)cc2F)c1Oc1cccc(Cl)c1	0.0317%
Cc1ccc(-n2c(SCC(=O)N3CCOCC3)nc(O)c(Cc3ccccc3)c2=O)cc1	11.3%
O=C([O-])Cc1ccccc1Nc1c(Cl)cccc1Cl.[Na+]	14.1%
CCOc1cccc2sc(N(CCCN(C)C)C(=O)c3ccc(S(=O)(=O)N(C)CC4CCCO4)cc3)nc12.Cl (stereo not shown)	-30%
Cc1nc2ccc(C(=O)N3CCN(Cc4ccccc4)CC3)cc2[nH]1	25.2%
CN(CC(=O)NC1CC1)S(=O)(=O)c1ccc(Br)cc1	14.4%
S=C(NC1CCCC1)N1CCN(c2ccccn2)CC1	13.2%
COCC(=O)NC1CC2CCC(C1)N2C(=S)Nc1ccccc1C(=O)OC (stereo not shown)	2.01%
COC(=O)CCC(=O)Nc1ccc2oc3c(c2c1)CCCC3	18.3%
COc1ccc(OC)c(N/C(C)=C/C(=O)c2ccncc2)c1	-3.52%
CCOC(=O)c1ccc(NCc2nc3ccccc3[nH]2)cc1	-0.845%
COc1ccc(C2CC(=O)Oc3c(C(CCN4CCCC(C)C4)c4ccc(N(C)C)cc4)c(OC)cc(OC)c32)cc1 (stereo not shown)	-1.36%
OC[C@H]1OC(Nc2ccc(N=Nc3ccccc3)cc2)[C@@H](O)[C@@H](O)[C@@H]1O (stereo partly shown)	5.2%

SMILES	hERG current change (%, negative = inhibition) at 1uM
O=C(Nc1ccccn1)c1c(O)c2cccc3c2n(c1=O)CCC3	7.78%
O=C(COC(=O)c1ccccc1NCc1ccco1)Nc1ccc2c(c1)OCO2	3.29%
Nc1nc(-n2cnnc2)nn1-c1ccccc1	7.69%
CCOCCCNC(=O)CN1C(=O)CSc2ccccc21	1.4%
CCOC(=O)C1CCN(C(=O)CSc2ccc(Cl)cc2)CC1	-3.43%
CCOc1ccc(N(CC(=O)Nc2cc(Cl)ccc2C)S(C)(=O)=O)cc1	4.48%
Cc1cccc(N2CCN(S(=O)(=O)c3ccc4c(c3)n(C)c(=O)c(=O)n4C)CC2C)c1 (stereo not shown)	4.72%
CCCCN1C(Nc2ccccc2)=NC[C@@H]1C	16.3%
CCO[C@@H]1OC(C(=O)N2CCOCC2)=C[C@H](C2CC2)[C@H]1CCCO	8.93%
CCOC(=O)c1c(Cc2cccc(Cl)c2)c[nH]c1C	7.04%
C=C(C)c1cccc(C(C)(C)NC(=O)NCc2ccc(OC)cc2)c1	9.96%
COc1ccc(CC(=O)N2N=C(C)CC2(O)C(F)(F)F)cc1 (stereo not shown)	19.6%
CCOC(=O)N1CCC(NC(=O)CS(=O)(=O)Cc2nc(-c3cccc(OC)c3)oc2C)CC1	-46.9%
O=C(Cn1nnc2ccccc2c1=O)NC1CCCCC1	16.8%
O=C(NC(=S)NC1CCCC1)c1ccccc1Br	19.7%
COCCNC(=O)CC(=O)N/N=C/c1ccc(C(=O)OC)cc1	18.8%
COC(=O)C1=C(c2ccc(Cl)c(C(F)(F)F)c2)C[C@@H]2CC[C@H]1N2C(=O)NCCOc1ccc(OC)cc1	14.3%
COc1ccc(Nc2nccc3c2nnn3C)cc1	14%
Cc1cccc2cc(COC(=O)C(C)C)c(=O)[nH]c12	-23.5%
O=S(=O)(c1ccc(Cl)cc1)N1CCN=C1SCc1cccc(Cl)c1	-0.0895%
O=C(Nc1nnc(COc2ccc(Cl)cc2)s1)c1ccco1	10.6%
CC(C)C[C@H]1C(=O)N2CCCC2[C@]2(O)O[C@](NC(=O)[C@@H]3C=C4c5cccc6[nH]cc(c56)CC4N(C)C3)(C(C)C)C(=O)N12 (stereo partly shown)	9.16%

SMILES	hERG current change (%, negative = inhibition) at 1uM
COc1ccc(OCc2cc(C(=O)NCCc3ccccc3)no2)c(Cl)c1	8.23%
Cl.O=C(c1cccc(F)c1)N1CCC(O)(c2cccnc2)CC1	18.7%
CSCCC1C(=O)OC2(C)CC(C)(C)NC(=S)N12 (stereo not shown)	-4.56%
CC1CC(C)(C)NC(C)c2ccccc21.Cl (stereo not shown)	13.6%
O=C(CSc1ccccc1)Nc1ccc(N2CCOCC2)c(F)c1	6.12%
COCCCN(C(=O)C(C)Oc1ccc(Br)cc1)c1c(N)n(Cc2ccccc2)c(=O)[nH]c1=O (stereo not shown)	27%
CC(=O)O[C@@H]1/C=C/[C@](C)(O)C[C@@H](C)C/C=C/[C@H]2[C@@H]3O[C@]3(C)[C@@H](C)[C@H]3[C@H](Cc4ccccc4)NC(=O)[C@@]312	14.4%
Cc1ccc(C(=O)Oc2ccc(C(=O)COC(=O)c3cnccn3)cc2)cc1	-2.44%
CCOC(=O)C1(c2ccccc2)CCN(CC(=O)Nc2cccc3ccccc23)CC1	9.92%
COc1ccccc1OCC(=O)N(Cc1nnc(-c2ccccc2Cl)o1)C1CC1	-8.53%
COc1cc(/C=N/NC(=O)Cc2ccccc2)cc([N+](=O)[O-])c1O	12.3%
O=C(CSc1ccccc1)NCc1cccnc1	7.54%
COCCNC(=O)Cn1ncc2ccsc2c1=O	8.96%
CCOc1ccccc1NC(=O)N1CCC(C(=O)c2ccc(F)cc2)CC1	9.5%
COc1nc2ccc(C)cc2cc1-c1noc(-c2cccnc2)n1	13.9%
O=C(OCC(=O)N1CCN(C(=O)c2ccco2)CC1)c1cc(-c2ccc(Cl)c(Cl)c2Cl)nc2ccccc12	9.57%
CCOC(=O)C1CCN(C2CCN(C(=O)c3oc4c(C)c(C)ccc4c3C)CC2)CC1	-15.6%
O=C(CCc1nc2ccccc2c(=O)[nH]1)NNC(=O)c1cccc(Cl)c1	4.12%
Cc1[nH]c(=O)[nH]c(=O)c1S(=O)(=O)N1CCCC(C(=O)N2CCC(Cc3ccccc3)CC2)C1 (stereo not shown)	20.5%
